Source: the supplement of paper PMC10126150
Values marked as one replicate rest on one cluster of the flow cell; about a third of the high ones do not repeat.

Test system: ATP
Assay: switch fluorescence ratio, 500 uM ATP over buffer (Cy3 cluster intensity, sum of 5 cycles each) (fold (ratio)); higher = stronger signal-on switching upon ATP binding; sequences stand for … in TCGTCGGCAGCGTCAGATGTGTATAAGAGACAGTTTTTTTTTTTTTTTTTTTTTTTTT…TC
Settings: aptamer strand: ATP DNA aptamer (quencher-CACCTGGGGGAGTATTGCGGAGGAAGG + anchor), 100 nM annealed; ATP concentration: 500 uM; one replicate
Method in brief: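 After annealing to 100 nM quencher-labelled ATP aptamer, Cy3-labelled switching-strand clusters on a modified Illumina MiSeq flow-cell were imaged in selection buffer. A second image followed after 15 min with 500 uM ATP at 22 °C, and five such buffer/ATP cycles were done, each separated by NaOH stripping and re-annealing. The fluorescence ratio, averaged per switch-domain sequence, is summed target-cycle over summed buffer-cycle Cy3 intensity per cluster, with clusters outside 100-1000 RFU excluded.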
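Note: ATP exposure 15 min at 22 °C before imaging.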

Sequence	switch fluorescence ratio
GAGACGTAAC	1.12
ATGATGATA	1
TGCAAGCGGC	1.05
TGAGGCTATT	1.01
AGCACCAGGT	1.85
TCTCTTCTTT	1.04
CAGTATGTGC	1
TGCCGGTAC	1.22
AGGACGGGTA	1.01
TTAAGCGCAG	1.01
TGCTAGCGGA	0.983
AGCTAGTTGA	0.962
CATAGGACTA	1.02
GGAGGGAACC	1
GGCAGGAAGG	0.997
TCAGCTTTC	1.15
GGTCTAGGCC	0.969
TATATTGGTT	0.981
CCCAGGGGGT	1.54
TGCTTCCTTC	1.38
TATAACAAAT	1.03
TCTGGCTACA	1.01
CCCAGCACGG	1.2

Sequence	switch fluorescence ratio
ACAAGAATGC	1.1
CTAGTAGCTC	1.04
GCGGCGTTTC	0.97
ACGGCGGT	1.11
CGTACTGAAC	1.1
TCTTTTTGCT	1.29
ACCTCGACGA	1.17
CGGCTCAGAC	1.11
AACTCGGGTG	1.18
CCAACTTGAG	1.09
TTAGTCGTCA	0.961
GTTCGCCCTT	1.01
TCACTAGATT	1.03
ATTCAATGTT	1.01
CTGTTCTGCA	1.01
ATCTGTCACG	1.05
AGCAGGACCT	1.05
GTTAACAAAT	0.999
TTATGCATTA	1
CCCCCCGCGG	2.18
TGTCGTCAAA	0.992
TTGACCTGGA	1.13
TTCCTGGGCT	1.05

Sequence	switch fluorescence ratio
CGTTATCGTT	0.979
ATCAATGT	1.03
TTGGTTCACT	1.02
CCGGTTCGGA	1.03
AAAGGCTCTG	0.97
AACATGCATG	1.04
AACAGTTTGC	0.968
CCTTCTTACT	1.27
CAGGAAGTGT	1
CCAAACAGAG	1.03
ATAGTTTTTA	0.966
ACCGTATCGA	1.04
CACCTACCAA	1.42
GGATTAAGGT	1.01
ATGTGAGTA	1
ACGTACCGTG	1.57
TTCGAAATAG	2.45
TTCTCTACGG	1.07
CAATTGCGTC	1.02
GCGAATGTGC	1
CAATGTTTAC	0.999
AGTCTAATGG	0.947
GTCGGGCTGA	1

Sequence	switch fluorescence ratio
TTCCACAGCG	1.04
GTTATAGATG	0.996
CAGCCAAAA	1.1
TTTTCCGCAT	4.61
CCGGGGGTGT	1.12
TCTTGGGGTT	0.961
ATGCAAACTT	1.06
CGACGTCGCG	0.961
GAGTGTGGAA	1.06
TAACTAGTGT	0.994
ATAATTTTGA	1
CGGTACATTC	1.02
CAGAAAGCGG	0.953
GTTGTCTAGT	0.966
CCGCTGACAT	2.33
GTGCGATGGG	0.996
GATAGTGTTA	0.945
CTCGAAGTGC	2.03
CGTTGGAGGA	1.04
AGGGTGCACA	0.991
AGGAGAATTT	1.02
ATGGCCGGGC	1.04
GAATGGCGAC	0.976

Sequence	switch fluorescence ratio
TAGAATTTCC	1.01
TAAGAAAGT	0.932
TTGCTAACTG	0.999
TATTTACATC	1.01
TCTTGATTAA	1
GGTTGATAGC	1.01
CACGGAATCA	1.11
GTGTCGTACT	0.983
AGCTGGTCAA	1
GTTGTTTCTT	0.975
ACTATCCACA	1.07
TGCTAGGTTA	0.971
ATGCGTATAA	1.03
GGCGCGAATA	1.11
TTCGAGGACG	0.991
CGTCTCTCAA	1.24
CTTGATTTAG	0.996
CCGCGTTGCC	1.44
TTGAGCCCGG	1.05
GAAGGTAGAC	1.12
TATGCTTTCG	1.04
AATAAGCGTT	0.982
GGTAGGCCAA	1.01

Sequence	switch fluorescence ratio
GATTTCATTA	0.979
CGCTGGATTT	1.05
CTACACGCAG	1.07
GTTGAGCCTA	1.06
TCTACGTATT	1.14
CACTGCATAT	1.94
TCGATGATGA	0.982
TCGGGACAGG	1.02
TAGCAACAGT	1.01
TGACTGAGTG	1.05
TCTTGGAGAT	1.02
TATACGTTAG	0.991
TGGACGCTTC	1.24
GATCTCCGTT	1.33
AGATTACCGT	1
GAATGGTATC	1.01
AACTATGTAT	1
TCATCCGCTT	2.26
AAGGGCCAGA	0.965
CCCTTGAGAG	0.994
TGGAACGGAA	1.05
CGACGAATGG	1.37
GGCTGTAGTC	1.02

Sequence	switch fluorescence ratio
GTTTCTAGGA	0.992
TTGTCCGGAA	1.52
GCGCAAGACG	2.31
GAACGCAGGG	1.21
TTGTAACAGG	1.06
TGGGGAGAGA	0.957
AGTTGTGGCA	0.977
GTGTAGAACA	1.01
TTGGCTAT	1.01
AGTCAAAATT	1.01
CAAAGTCTTA	0.985
AGATATTGCG	0.989
GTTTGAAGCA	0.999
ATGTGTAGCA	1.01
TACGTAAGAA	1.12
GTCTATGAGG	0.985
CAACGGTCGT	0.993
GCGTCATAAC	1.23
ATGCCTAACC	1.04
